Test results from PubChem BioAssay AID1508642 (National Center for Advancing Translational Sciences (NCATS), 2021).
Hit rate of the full screen: of about 43,000 compounds, about 200 (0.47%) were called active. Inconclusive results (about 12%) are left out. Calls follow the shape of the dose curve; as a rule, active = well fitted cell-killing curve with a large enough effect; inconclusive = small, poorly fitted or top-dose-only effect, or effect the other way; inactive = flat fitted curve, though single readings scatter. The list shows a part of the results.

assay: Cell viability qHTS assay in S16 Pmp22-F2sN cells; conditions: S16 Pmp22-F2sN Schwann cells viability, CellTiter-Glo, 24 h; series mostly up to 57.5 µM; activity change, negative = cytotoxicity: at the top concentration; also: nearly all actives have a fitted effect of over 65% in size
How it was run: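 S16 Pmp22-F2sN Schwann cells (500-1,000/well) in phenol-red-free DMEM with 10% FBS received 23 nL compound by pin tool for 24 h at 37 °C. Viability was then read as CellTiter-Glo luminescence after 15 min at room temperature.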
% is scaled to controls: 0 for no effect and ±100 for the full control effect.

SMILES | activity change, negative = cytotoxicity
Cc1ccc(Cl)cc1N1CCN(C(=O)Cn2nc(C)n3c(cc4sccc43)c2=O)CC1 | inactive: 6.31%
Cc1cc(C)cc(C(=O)Nc2c3c(nn2-c2ccccc2C)CS(=O)(=O)C3)c1 | inactive: -3.8%
CCCN(C(=O)CCn1cnc2onc(-c3ccc(F)cc3)c2c1=O)c1ccccc1C | inactive: -17.7%
Cc1cc(C)cc(NC(=O)Cn2nnc(C(=O)NCc3ccco3)c2N)c1 | inactive: -2.03%
O=C(CN1C(=O)COc2ccc(S(=O)(=O)N3CCCCCC3)cc21)N1CCN(c2ccccc2)CC1 | inactive: 10.4%
CCC(=O)N1c2nc(C(C)C)nn2C2(CCCCC2)[C@@H]2CCCC[C@@H]21 | inactive: 0.68%
O=C(Cn1nc2c(cc1=O)CCCC2)NCc1ccccc1Cl | inactive: -3.19%
Cc1ccc(C(=O)Nc2nnc(SCc3cc(=O)n4ccc(C)cc4n3)s2)cc1 | inactive: 12.5%
CCCCN(C)c1ncnc2c1cnn2-c1cccc(Cl)c1 | inactive: 16.1%
N#Cc1ccccc1NC(=O)C(=O)NCC(c1cccnc1)N1CCc2ccccc2C1 (stereo unspecified) | inactive: -8.17%
CCc1ccc(S(=O)(=O)c2nnn3c2nc(Nc2cccc(C)c2C)c2sccc23)cc1 | inactive: -17.8%
O=C(NCc1ccccc1Br)c1ccc(-n2cnc3cccnc32)cc1 | inactive: -13.6%
COc1cc(-c2nnc(SCC(=O)N3CCCc4ccccc43)o2)cc(OC)c1OC | inactive: -14.7%
COc1ccc(N(CC(=O)Nc2ccc(Cl)cc2C)S(=O)(=O)c2ccccc2)c(OC)c1 | inactive: -21.5%
Cc1cc(SCC(=O)NCc2ccccc2)nc(=O)[nH]1 | inactive: 7.07%
COc1cccc(CNc2ccc3c(c2)ncn3C)c1OC | inactive: 18.3%
CCC(=O)N1CCc2cc(S(=O)(=O)NCCC(=O)Nc3cccc(C)c3C)ccc21 | inactive: 6.18%
CCOc1ccccc1NC(=O)C1CCCN(S(=O)(=O)c2ccc3c(c2)CCCN3C(C)=O)C1 (stereo unspecified) | inactive: -28.4%
Cc1cccc(-c2cc(NC(=O)COc3ccccc3F)n(-c3ccccc3)n2)c1 | inactive: -8.24%
Cc1nnsc1C(=O)Oc1ccccc1Cl | inactive: 6.65%
Cc1ccccc1C(=O)Nc1nnc(S(=O)(=O)N2CCCc3ccccc32)s1 | inactive: -4.13%
COc1ccc(C(=O)N2CCC(C(=O)Nc3ccc(OC)cc3OC)CC2)cc1 | inactive: 7.06%
Cc1ccc(-n2c(=O)c3sccc3n(Cc3cc(=O)n4ccccc4n3)c2=O)cc1 | inactive: -0.865%
CCN(CC)CCOC(=O)c1ccc(NC(=O)CCn2c(=O)oc3ccccc32)cc1 | inactive: 26.8%

SMILES | activity change, negative = cytotoxicity
CSc1ccccc1NC(=O)CCS(=O)(=O)c1nc(-c2cccs2)cc(C(F)(F)F)n1 | inactive: 11.5%
Cc1ccc(-c2cn3c4c(=O)n(C)c(=O)n(C)c4nc3n2-c2cccc(Cl)c2)cc1 | inactive: -1.24%
CCn1c(C(=O)Nc2cc(C)cc(C)c2)cc2sc(Cl)cc21 | inactive: -1.4%
COc1ccc(C(=O)N=c2sc3cc(Cl)ccc3n2C)cc1 | inactive: 8.72%
Cc1ccc(NC(=O)CSc2nnc(-c3cc4occc4n3C)n2-c2ccccc2C)cc1F | inactive: 2.56%
COC(=O)c1c(-c2cccs2)csc1NC(=O)c1cc(OC)cc(OC)c1 | inactive: 1.53%
CCN(CC)c1ccc(NC(=O)Cn2c(C)c3cnn(-c4ccccc4)c(=O)c3c2C)c(C)c1 | inactive: 5.09%
Cc1cc(Cl)ccc1NC(=O)CCS(=O)(=O)c1cc2c(cc1C)NC(=O)CO2 | inactive: 9.93%
Clc1cccc(-n2ncc3c(NCCCc4ccccc4)ncnc32)c1 | inactive: -7.09%
Cc1cc(C)cc(NC(=O)C(Cc2ccccc2)N2Cc3ccccc3C2=O)c1 (stereo unspecified) | inactive: 1.37%
Cc1ccc(CNC(=O)C(CC(C)C)N2Cc3ccccc3C2=O)cc1 (stereo unspecified) | inactive: -10.6%
O=C(NCCSc1c(-c2ccc(Br)cc2)[nH]c2ccccc12)c1ccc(S(=O)(=O)N2CCOCC2)cc1 | inactive: -19%
CCC(=O)Nc1cc(C(=O)NCc2ccc(C)cc2)ccc1S(=O)(=O)c1ccc(C)cc1 | inactive: -2.42%
Cc1ccc(CCNC(=O)c2sc3ncccc3c2-n2cccc2)cc1 | inactive: -0.991%
COc1cc(NC(=O)c2nc3cc(C)c(C)cc3n(C)c2=O)cc(OC)c1OC | inactive: 6.4%
COc1cccc(NC(=O)CSc2nc(O)c(C/C=C/c3ccccc3)c(=O)[nH]2)c1 | inactive: -1.06%
COc1ccc(N2CCN(S(=O)(=O)c3ccc(-c4cc(C(F)(F)F)on4)s3)CC2)cc1 | inactive: 6.54%
CC1CCC(NC(=O)C2(C)Cc3ccccc3C(=O)N2Cc2ccccc2Cl)CC1 (stereo unspecified) | inactive: 24.7%
CCc1cccc(C)c1Nc1c(-c2ccc(N(C)C)cc2)nc2ncccn12 | inactive: -18.8%
Cc1cccc(OCc2ccc(-c3nc(C#N)c(N4CCN(c5ccccc5)CC4)o3)o2)c1 | inactive: 14.1%
Cc1cc(C)c2oc(C(=O)Nc3c(C(=O)c4ccc(F)cc4)oc4ccccc34)cc(=O)c2c1 | inactive: 4.16%
CCCCn1c(Oc2cccc(C(=O)OC)c2)nc2c1c(=O)n(C)c(=O)n2C | inactive: -17.4%
CCOc1ccc(NC(=O)Cn2nnc(C(=O)OC)c2C(=O)OC)cc1 | inactive: 2.82%
Cc1ccc(C(=O)NCC(=O)OCc2cc(=O)n3nc(C4CCCCC4)sc3n2)cc1 | inactive: -0.702%

SMILES | activity change, negative = cytotoxicity
COc1ccc(Cl)cc1NC(=O)C(C)n1nnc2sc3c(c2c1=O)CCCC3 (stereo unspecified) | inactive: 10.5%
Cc1cc(C)cc(N2C(=O)CC(c3ccc(C(F)(F)F)cc3)C3=C2COC3=O)c1 (stereo unspecified) | inactive: 6.07%
COc1ccccc1C(=O)Nc1cc(-c2cccc(Br)c2)nn1-c1ccccc1 | inactive: -22.7%
CCN1CCN(c2csc3ccc(Cl)cc3c2=O)CC1 | inactive: 6.89%
CCc1cccc(NC(=O)Cn2nc(CC)n3c(cc4cc(C)ccc43)c2=O)c1 | inactive: 1.2%
O=c1oc2ccc3ccccc3c2cc1-c1nnc(Nc2ccccc2)s1 | inactive: 9.18%
COc1ccc(C(=O)NC2(C(F)(F)F)C(=O)NC(C)=C2C#N)cc1 (stereo unspecified) | inactive: 10.1%
CCC(Oc1ccc(F)cc1)C(=O)Nc1cc(-c2ccc(C)cc2)no1 (stereo unspecified) | inactive: -0.923%
COc1cccc(CNC(=O)Nc2cc(C(=O)NCc3cccc(F)c3)ccc2N2CCCC2)c1 | inactive: 4.98%
CCNC(=O)CCSc1nnc(-c2ccc(O)cc2)o1 | inactive: 0.719%
Cn1c(=O)c2ccccc2n2c(CCC(=O)N3CCN(c4cccc(Cl)c4)CC3)nnc12 | inactive: 2.19%
CCN(CC)c1ccc(NC(=O)c2cc(CN3CCCC3)on2)c(C)c1 | inactive: -26.4%
CCOc1cc(CNC(=O)c2ccc(NC(=O)c3nsc4ccccc34)cc2)ccc1OC | inactive: -16.4%
COc1ccccc1NC(=O)CSc1nc2c(oc3ccccc32)c(=O)n1-c1ccc(C)cc1 | inactive: -1.73%
CCOC(=O)N1CCc2c(sc3c2c(=O)n(-c2ccc(Cl)cc2)c(=O)n3CC(=O)c2ccc(F)cc2)C1 | inactive: 0.228%
COc1ccc(NS(=O)(=O)c2nnc(NC(=O)c3ccccc3F)s2)cc1 | inactive: -2.53%
Cc1cc(Br)ccc1NC(=O)c1cc2c(s1)-c1ccccc1SC2 | inactive: -4.69%
O=C(CCCn1c(=O)c2cccn2c2cccnc21)NCCc1ccc(Cl)cc1 | inactive: 7.92%
COc1ccc(CN2C(=O)C(NC(=O)c3ccc(C)cc3)(C(F)(F)F)N=C2c2ccccc2)cc1 (stereo unspecified) | inactive: 10.3%
Cc1ccc(CNc2nc3c(S(=O)(=O)c4ccccc4)nnn3c3ccsc23)cc1 | inactive: 3.19%
CCOc1ccc(NC(=O)Cc2csc(COc3cccc(C)c3)n2)cc1 | inactive: -5.5%
CCOc1ccccc1C1C(C(=O)Nc2ccccc2OC)=C(C)Nc2nc3ccccc3n21 (stereo unspecified) | inactive: 26.6%
Cc1ccc2nc(NC(=O)c3cc(=O)c4cc(C)c(C)cc4o3)sc2c1 | inactive: -0.514%
Cc1ccc(C)c(NC(=O)CSc2cn(CC(=O)N3CCCC3)c3ccccc23)c1 | inactive: -0.406%

SMILES | activity change, negative = cytotoxicity
CCCN1C(=O)C(NC(=O)c2ccccc2OC)(C(F)(F)F)C(C(=O)OC)=C1C (stereo unspecified) | inactive: 3.61%
CCc1nnc2c3ccccc3nc(N3CCN(c4ccc(C)cc4C)CC3)n12 | inactive: 2.35%
O=C(NCCc1csc(-c2cccnc2)n1)c1cccc(C(F)(F)F)c1 | inactive: -4.65%
COc1ccccc1CNC(=O)c1ccc(C)c(-n2cnc3cccnc32)c1 | inactive: 0.0891%
COc1cccc(NC(=O)Cn2c(=O)n(-c3ccc(CC(=O)NCC4CCCO4)cc3)c(=O)c3ccccc32)c1 (stereo unspecified) | inactive: 2.62%
CCOc1ccccc1NC(=O)c1cccc2c1C(=O)N(C1CCCCC1)C2 | inactive: 9.22%
CCC(=O)Nc1nnc(S(=O)(=O)N(C)Cc2ccccc2)s1 | inactive: 10.1%
CSc1ncc(Cl)c(C(=O)N(Cc2ccccc2Cl)C2CCS(=O)(=O)C2)n1 (stereo unspecified) | inactive: 6.72%
Cc1ccc(Cl)cc1NC(=O)Cn1c(=O)c(CNc2ccccc2)cc2cc3c(cc21)OCCO3 | inactive: -0.984%
Cc1sc2ncn(CC(=O)Nc3cccc(C(F)(F)F)c3)c(=O)c2c1S(=O)(=O)N1CCC(C)CC1 | inactive: -14.3%
COc1cccc(C(=O)NC(=O)Nc2ccc(-c3cc(C(F)(F)F)nn3-c3ccccc3)cc2)c1 | inactive: 1.15%
COc1ccc(C2c3c(-c4ccccc4O)n[nH]c3C(=O)N2Cc2ccco2)cc1 (stereo unspecified) | inactive: -5.15%
CCOC(=O)C1=C(CN2CCN(c3ccccc3)CC2)NC(=O)NC1c1ccc(C)cc1 (stereo unspecified) | inactive: 5.81%
O=C(Nc1ccccc1C(=O)OCc1cc(=O)n2nc(C3CC3)sc2n1)c1cccc(Cl)c1 | inactive: 5.46%
COc1ccc(C(=O)Nc2cc(C(F)(F)F)ccc2N2CCN(c3ccccc3)CC2)cc1OC | inactive: 6.91%
Cc1cccc(Cn2c(CN3CCC(C(=O)NCCc4ccccc4)CC3)cc3ccccc32)c1 | inactive: -18.1%
CCN(c1cccc(C)c1)S(=O)(=O)c1nnc(NC(=O)c2cccs2)s1 | inactive: -0.409%
COc1ccc(-c2c(C)nn3c4c(cnc23)C(=O)CC(c2ccc(C)cc2)C4)cc1 (stereo unspecified) | inactive: 2.07%
CCCCn1c(-c2ccc(S(=O)(=O)N3CCOCC3)cc2)csc1=Nc1ccccc1 | inactive: 11.1%
Cn1c(C(=O)NCc2ccc(F)cc2)cc2c(=O)n(C)c3ccccc3c21 | inactive: 5.43%
CCCn1c(=O)c2sccc2n2c(CCCC(=O)N3CCN(c4ccccc4)CC3)nnc12 | inactive: 3.73%
COc1ccc(CCNC(=O)Cn2nnc(-c3ccc(C(F)(F)F)cc3)n2)cc1OC | inactive: 3.18%
CCS(=O)(=O)c1ncc(N(Cc2ccco2)Cc2sccc2C)c(C(=O)Nc2cc(C)ccc2C)n1 | inactive: 0.336%
Cc1ccccc1NS(=O)(=O)c1ccc2[nH]cc(C(=O)N3CCCC3)c(=O)c2c1 | inactive: -6.88%
